# Measured values taken from PubChem BioAssay AID894 (National Center for Advancing Translational Sciences (NCATS), 2007).
# Hit rate of the full screen: of about 150,000 compounds, about 6,500 (4.3%) were called active. The inconclusive results got no clear call from the source; some entries with a clear call stand among them for comparison. The call rests on the fitted dose curve; in most records, active means well fitted inhibition curve with a large enough effect (not every such curve was filed as active); inconclusive means small, poorly fitted or top-dose-only effect, or another doubt; inactive means no such curve, though single readings can be large or run the other way. No potency is given beside an inconclusive call; the fits are too rough.
# Target: 15-hydroxyprostaglandin dehydrogenase [NAD(+)] (Homo sapiens) (UniProt P15428)
# Sequence of UniProt P15428 (P15428 whole entry, looked up): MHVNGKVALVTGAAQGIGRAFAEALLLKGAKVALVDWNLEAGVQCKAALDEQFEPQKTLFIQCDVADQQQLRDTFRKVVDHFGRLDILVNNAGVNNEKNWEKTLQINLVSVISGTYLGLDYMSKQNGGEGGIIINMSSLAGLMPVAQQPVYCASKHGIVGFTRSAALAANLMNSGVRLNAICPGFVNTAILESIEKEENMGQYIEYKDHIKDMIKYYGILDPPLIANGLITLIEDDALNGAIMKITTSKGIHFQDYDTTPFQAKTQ
# Experiment: qHTS Assay for Inhibitors of HPGD (15-Hydroxyprostaglandin Dehydrogenase)
# Settings: purified HPGD, NADH fluorescence kinetic, PGE2 substrate; activity change, negative = inhibition: active compounds read low
# Method in brief: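 NADH formation kinetics: reaction with 30 uM PGE2 and 1 mM NAD+ (final), 20 nM enzyme, Tris-HCl pH 8 with Tween 20, after 15 min compound preincubation at room temperature. Fluorescence change, last versus first of five reads.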
# On the % scale 0 is the no-effect control and ±100 the full control effect; potency means the concentration at half of the fitted maximal effect; tags describe the fitted curve by direction and shape.
SMILES,"activity change, negative = inhibition",Potency
C[C@@H](C(=O)Cc1ccc2ccccc2c1)[C@@H]1C[C@@]1(C)[C@@H](NP(=O)(c1ccccc1)c1ccccc1)c1ccccc1,inactive: -15.5%,–
COc1cc(C(=O)n2nc(C)cc2C)ccc1O,inactive: -5.24%,–
O=C(Cn1c2ccccc2c(=O)c2ccccc21)N/N=C/c1ccc(N2CCCC2)c([N+](=O)[O-])c1,–,"inconclusive [inhibitor, partial curve]"
N#Cc1ccc(-c2ccc(F)cc2)nc1SCC(=O)Nc1sc2c(c1C#N)CCC2,–,"inconclusive [inhibitor, partial curve]"
Cc1ccc(-c2cc(C#N)c(=O)n(Cc3c(Cl)cccc3Cl)c2)cc1,–,"inconclusive [inhibitor, full curve]"
CCCC12CN3CCN(CC(C3)/C1=N\NC(=O)c1ccc(C(C)(C)C)cc1)C2,inactive: 0.964%,–
CCN(CC)S(=O)(=O)c1cccc(C(=O)Nc2cc3oc4ccccc4c3cc2OC)c1,–,"inconclusive [inhibitor, partial curve]"
Cc1nc2c(C(=O)O)cnn2c(C)c1Cc1ccccc1F,–,"inconclusive [inhibitor, partial curve]"
C[C@H]1C(c2ccccc2)=NN(c2ccccc2)[C@@H]1CO,–,"inconclusive [inhibitor, partial curve]"
CCN(CC)c1ccc(C=C2C(=O)OC3(CCCC3)OC2=O)cc1,–,"inconclusive [inhibitor, single point]"
COc1ccc(CN=CC2=C(O)CC(C)(C)CC2=O)cc1,inactive: -10.6%,–
Cc1ccc(CC(=O)N2CCC(c3nc4c(nnn4Cc4ccccc4)c(=O)[nH]3)CC2)cc1,–,"inconclusive [inhibitor, partial curve]"
Cc1ccc2cccc(Oc3ccc([N+](=O)[O-])cc3[N+](=O)[O-])c2n1,inactive: -18.5%,–
O=C(O)c1ccc2nc(-c3ccccc3)c(-c3ccccc3)nc2c1,–,"inconclusive [inhibitor, full curve]"
NS(=O)(=O)c1ccc(CCNc2ncnc3c2c(-c2ccccc2)cn3-c2ccc(F)cc2)cc1,–,"inconclusive [inhibitor, partial curve]"
COc1cc(-c2nnc(-c3ccc(S(=O)(=O)c4ccccc4)cc3)o2)cc(OC)c1OC,inactive: 799%,–
COc1ccc(-c2nnn(CC(=O)NCc3cccs3)n2)cc1OC,–,"inconclusive [inhibitor, single point]"
COCOc1cc(OC)ccc1C(=O)/C=C/c1cccc(C(F)(F)F)c1,inactive: -4.33%,–
CCOC(=O)C1=C(C)N=c2s/c(=C\c3ccc(OCC(=O)O)cc3)c(=O)n2C1c1ccc(OC(C)C)cc1 (stereo unspecified),–,active: 4.47 µM
CCOC(=O)c1sc(NC(=O)c2cccs2)nc1C,–,"inconclusive [inhibitor, partial curve]"
COc1ccc(C2CC(C(F)(F)F)n3ncc(C(=O)NCC4CCCO4)c3N2)cc1OC (stereo unspecified),–,"inconclusive [inhibitor, partial curve]"

SMILES,"activity change, negative = inhibition",Potency
O=C(O)c1ccc(COc2ccccc2/C=C2/NC(=O)N(c3cccc(Cl)c3)C2=O)cc1,–,"inconclusive [inhibitor, single point]"
COC(=O)c1c(OC)cc2c(c1C)Oc1c(Cl)c(O)c(Cl)c(C)c1C(=O)O2,–,"inconclusive [inhibitor, partial curve, poor fit]"
COc1cc2[nH]c(=O)n(CCC(=O)NCCC(C)C)c(=O)c2cc1OC,–,"inconclusive [inhibitor, partial curve]"
COCCCNC(=O)c1ccc(Cn2c(=O)c3ccccc3n(Cc3ccccc3C#N)c2=O)cc1,inactive: -22.4%,–
Cc1cccc(-n2c(=O)c(C#N)cc3c(=O)n4ccccc4nc32)c1,–,"inconclusive [inhibitor, partial curve]"
O=C(Nc1sc2c(c1C(=O)O)CCCCC2)c1ccco1,–,active: 17.8 µM
CCOC(=O)c1sc(NC(=O)CSc2nc3c(c(-c4ccc(OC)cc4)c2C#N)CCCC3)c(C#N)c1C,–,"inconclusive [inhibitor, partial curve, poor fit]"
O=C(c1cc2ncc(Br)cn2n1)N1CCOCC1,–,active: 22.4 µM
CN(C)S(=O)(=O)c1ccc(N2CCCC2)c(C(=O)NC(c2ccccc2)c2ccccc2)c1,–,"inconclusive [inhibitor, single point]"
CCN1CCN(c2cc(-c3ccccc3)nc3cc(-c4cccc(F)c4)nn23)CC1,–,"inconclusive [inhibitor, partial curve]"
N#Cc1ccccc1NC(=O)c1ccc(-c2ccccc2Cl)o1,–,"inconclusive [inhibitor, partial curve]"
Cn1ncc2c(Nc3ccc(-c4ccccc4)cc3)ncnc21,–,"inconclusive [inhibitor, partial curve]"
Nc1[nH]c(=S)[nH]c(=O)c1-c1ccccc1,–,active: 25.1 µM
COc1ccc(NC(=O)C2C3C=CC(C3)C2C(=O)NCc2ccco2)cc1 (stereo unspecified),–,active: 25.1 µM
COC(=O)c1ccc(NC(=O)C2CCCN2S(=O)(=O)c2ccc(F)cc2)cc1 (stereo unspecified),inactive: -4.68%,–
Cc1cccc2cc(C#N)c(NCCNC(=O)NC3CCCCC3)nc12,–,"inconclusive [inhibitor, partial curve]"
Cc1cc(-c2cccs2)c2c(n1)sc1c(=O)[nH]c(=O)[nH]c12,–,"inconclusive [inhibitor, partial curve]"
CC(C)(C)S(=O)(=O)c1cnc2c(-c3ccc(Cl)cc3)cnn2c1N,–,"inconclusive [inhibitor, partial curve]"
c1ccc(-n2nc3c(ccc4cnnc43)[nH]2)cc1,–,"inconclusive [inhibitor, partial curve]"
C/C(=N\NC(=O)c1ccccc1O)c1c(O)cc(C)oc1=O,–,"inconclusive [inhibitor, partial curve]"
